Assay results from PubChem BioAssay AID1457 (National Center for Advancing Translational Sciences (NCATS), 2008).
Where “and” joins values, the source holds several entries; their conditions need not be identical. Equal entries are not always repeated. About 730 (0.35%) of roughly 210,000 compounds were called active. Inconclusive means that the source gave no clear call. Such entries were picked first, then a sample of the others. Calls come from the whole dose curve; as a rule, active = well fitted inhibition curve with a large enough effect; inconclusive = small, poorly fitted or top-dose-only effect; inactive = no such curve, though single readings can be large or run the other way. A potency beside an inconclusive call is a rough fit, not a confirmed value.

Test: qHTS Assay for Identifying the Cell-Membrane Permeable IMPase Inhibitors: Potentiation with Lithium; note: nearly all actives have a fitted effect of over 50% in size;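 for activity, negative = IMPase inhibition: plate controls were basal vehicle for no effect and high inhibitor control for full effect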
Details: CHO-M1 cells, IP1 TR-FRET (IP-One), carbachol + lithium; series mostly up to 59.4 µM; activity, negative = IMPase inhibition: at the top concentration
How it was run: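 CHO cells stably expressing M1 receptor (2000/well) were cultured 16–30 h, then exposed to compounds with a small lithium addition for 30 min at 37C. IP1 was measured by TR-FRET competition; AC50 from Hill fits.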
Potency is the fitted concentration of half-maximal effect.

Row | Compound | Potency | activity, negative = IMPase inhibition
1 | Cc1ccc(Nc2c(-c3ccc(N4CCOCC4)cc3)nc3ncccn23)cc1C | inconclusive: 11.2 µM [inhibitor, partial curve] | –
2 | CCOc1cccc(C(=O)NC(=S)Nc2ccc3c(c2)OCCO3)c1 | – | inactive: 2.32%
3 | CCOC(=O)c1sc(=NC(=O)c2ccc(OC)c(OC)c2)n(C)c1C | inconclusive: 28.2 µM [inhibitor, single point] | –
4 | CC[n+]1c(/C=C/N(C)c2ccccc2)oc2ccc(Cl)cc21 | – | inactive: -3.94%
5 | O=C(O)CCSc1ccc2ccccc2n1 | active: 12.6 µM and active: 14.1 µM | –
6 | CC1(C(=O)NC2CCCCCCC2)CC1(Cl)Cl (configuration not stated) | – | inactive: 2.64% [at 38.3 µM]
7 | Cc1cc(-c2ccccc2)n[nH]1 | inconclusive: 2.82 µM [inhibitor, single point] | –
8 | Cc1ccc(/C=N/c2sc3c(c2C(N)=O)CCCC3)o1 | inconclusive: 3.55 µM [inhibitor, full curve, poor fit] | –
9 | Cc1ccc(S(=O)(=O)N[C@H](C(=O)OCC(=O)NC(=O)Nc2ccc3c(c2)OCCO3)C(C)C)cc1 | – | inactive: 4.48%
10 | COC(=O)c1ccc(C(=O)OC)c(NC(=O)COC(=O)c2ccccc2OC)c1 | active: 11.2 µM | –
11 | Cc1cc(NC(=O)CSc2nc(C(C)(C)C)nc3ccccc23)no1 | inconclusive: 22.4 µM [inhibitor, single point] | –
12 | Cn1c(=O)c2c(nc(NCc3ccc4c(c3)OCO4)n2Cc2ccccc2)n(C)c1=O | – | inactive: 21.2% [at 38.3 µM]
13 | COc1ccc(CCn2c(-c3ccccc3)nc3c(c(=O)c4ccccc4n3C)c2=O)cc1 | inconclusive: 28.2 µM [inhibitor, single point] | –
14 | CC(C)c1ccc(-c2c(C#N)c(N)nc(SCC(=O)N3CCCCCC3)c2C#N)cc1 | inconclusive: 28.2 µM [inhibitor, single point] | –
15 | Cc1cccc2cc(COC(=O)COc3ccccc3)c(=O)[nH]c12 | inconclusive: 28.2 µM [inhibitor, single point] | –
16 | COC(=O)c1c(NC(C)=O)sc(C(=O)Nc2ccccc2OC)c1C | inconclusive: 28.2 µM [inhibitor, single point] | –
17 | COC(=O)c1ccc(-c2csc(NC(=O)c3ccc(S(=O)(=O)N4CCc5ccccc5C4)cc3)n2)cc1 | inconclusive: 10 µM [inhibitor, single point] | –
18 | Cc1ccc2nc(SCC(=O)Nc3ccccc3N3CCOCC3)c(C#N)cc2c1 | inconclusive: 28.2 µM [inhibitor, single point] | –
19 | N/C(=N\OC(=O)COc1ccc2ccccc2c1Br)c1ccccn1 | inconclusive: 11.2 µM [inhibitor, single point] | –
20 | COc1ccc(-c2cc(C(F)(F)F)nc(SCC(=O)Nc3cc(C)on3)n2)cc1 | inconclusive: 28.2 µM [inhibitor, single point] | –
21 | CSc1ccc(N2C(=O)NC3(CCCCC3)C2=O)cc1 | inconclusive: 25.1 µM [inhibitor, partial curve] | –
22 | NC(=O)c1nn(-c2ccccc2)nc1N | inconclusive: 10 µM [inhibitor, single point] | –
23 | O=C(CSc1nc(-c2ccccc2)nc2ccccc12)Nc1cccc(C(=O)O)c1 | inconclusive: 8.91 µM [inhibitor, partial curve] | –
24 | Cc1cc(C)cc(C(=O)NCC(=O)OCC(=O)Nc2cccnc2Cl)c1 | – | inactive: 1.5%

Row | Compound | Potency | activity, negative = IMPase inhibition
25 | COc1ccc(C(NC(=O)c2ccc(-c3ccccc3)cc2)c2ccccc2)cc1 (configuration not stated) | inconclusive: 28.2 µM [inhibitor, single point] | –
26 | CCCOc1ccc(C(CC(=O)O)NC(=O)c2sc3ccccc3c2Cl)cc1 (configuration not stated) | active: 3.16 µM | –
27 | O=C(Nc1nc2c(s1)CN(Cc1ccccc1)CC2)c1c(F)cccc1F | – | inactive: 0.587%
28 | CCN(CC)c1ccc(-n2cc3c(=O)n(C)c(=O)n(C)c3c2)cc1 | inconclusive: 11.2 µM [inhibitor, partial curve] | –
29 | Cc1ccc(/C=C/C(=O)N2CCN(Cc3ccccc3)CC2)o1 | – | inactive: 1.58%
30 | Fc1cccc2sc(Nc3nc4ccccc4s3)nc12 | inconclusive: 28.2 µM [inhibitor, single point] | –
31 | COc1ccccc1Nc1nc2c(C)cccc2cc1C#N | inconclusive: 22.4 µM [inhibitor, single point] | –
32 | COc1ccccc1NC(=O)c1c(C)oc2c1CCCC2 | – | inactive: 24.2%
33 | COc1cccc(-c2nc3sc4c(c3c(=O)[nH]2)CCCCC4)c1 | inconclusive: 7.94 µM [inhibitor, partial curve] | –
34 | COc1ccc(CNC(=O)c2c([S-])n(-c3ccc(C)cc3)c3cccc[n+]23)cc1 | inconclusive: 28.2 µM [inhibitor, single point] | –
35 | O=C(COc1ccccc1)NC(=S)Nc1ccc2c3c(cccc13)CC2 | inconclusive: 14.1 µM [inhibitor, single point] | –
36 | CCOc1ccc(NC(=O)CN2CCN(CC(=O)Nc3cccc(F)c3)CC2)cc1 | – | inactive: 25.3% [at 38.3 µM]
37 | CCOC(=O)CC(NC(=O)c1ccccc1)c1ccc(OC)cc1 (configuration not stated) | inconclusive: 2.82 µM [inhibitor, single point] | –
38 | Cc1ccccc1-n1c(=O)cc(N2CCC3(CC2)OCCO3)[nH]c1=O | – | inactive: 0.525%
39 | Cc1cc(NC(=O)CCCN2C(=O)c3cccc4cccc(c34)C2=O)no1 | – | inactive: 4.01%
40 | COc1ccc(C(=O)C[n+]2cn(C(F)F)c3ccccc32)c(F)c1 | – | inactive: -6.57%
41 | COc1ccccc1CNc1cc(-c2c(C)noc2C)ncn1 | – | inactive: 11.8%
42 | CCOC(=O)Cc1csc(SCc2nc3ccccc3c(=O)[nH]2)n1 | inconclusive: 35.5 µM [inhibitor, partial curve, poor fit] | –
43 | CCN(CC)c1nc(C)nc2c1sc(=S)n2C | inconclusive: 5.01 µM [inhibitor, single point] | –
44 | CC(C)(O)C#Cc1ccc(C(=O)N2CCN(c3ccc([N+](=O)[O-])cc3)CC2)cc1 | – | inactive: 15.9%
45 | N#Cc1c(Nc2ccc(F)cc2)sc(C(=O)c2ccccc2)c1N | – | inactive: 15.2%
46 | CCn1c(-c2csc3c2CCCC3)n[nH]c1=S | – | inactive: -5.59%
47 | COC(=O)Nc1nc2ccc(C(=O)c3ccccc3)cc2[nH]1 | inconclusive: 28.2 µM [inhibitor, single point] | –
